Values marked as one replicate rest on one cluster of the flow cell; about a third of the high ones do not repeat.
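Also: ATP exposure 15 min at 22 °C before imaging.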

The data set concerns ATP. Description: switch fluorescence ratio, 500 uM ATP over buffer (Cy3 cluster intensity, sum of 5 cycles each) (fold (ratio)); higher = stronger signal-on switching upon ATP binding; sequences stand for … in TCGTCGGCAGCGTCAGATGTGTATAAGAGACAGTTTTTTTTTTTTTTTTTTTTTTTTT…TC. Conditions: aptamer strand: ATP DNA aptamer (quencher-CACCTGGGGGAGTATTGCGGAGGAAGG + anchor), 100 nM annealed; ATP concentration: 500 uM; one replicate. In outline:
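After annealing to 100 nM quencher-labelled ATP aptamer, Cy3-labelled switching-strand clusters on a modified Illumina MiSeq flow-cell were imaged in selection buffer. A second image followed after 15 min with 500 uM ATP at 22 °C, and five such buffer/ATP cycles were done, each separated by NaOH stripping and re-annealing. The fluorescence ratio, averaged per switch-domain sequence, is summed target-cycle over summed buffer-cycle Cy3 intensity per cluster, with clusters outside 100-1000 RFU excluded.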
Turning to GTTGGTGGG, the switch fluorescence ratio was found to be 1.04.

Regarding GACCAAACAT, the switch fluorescence ratio stood at 1.26.

Turning to TGGAAATTAC, the switch fluorescence ratio turned out to be 1.26.

As to GGAATTGTGA, the switch fluorescence ratio amounted to 0.982.

For the sequence ATAGAAACAA, the switch fluorescence ratio worked out at 1.

Regarding CTATTAGCGA, the switch fluorescence ratio came to 1.21.

For CGTTAATGTA, the switch fluorescence ratio is 1.

GCCCGGAGAG: the switch fluorescence ratio was 1.12.

In the case of ATTAAAACTG, the switch fluorescence ratio stood at 1.09.

GGGAGCGACA: the switch fluorescence ratio came to 0.959.

On to TATCTCCTCC, for which the switch fluorescence ratio stood at 1.54.

Turning to TAATCACGCT, the switch fluorescence ratio turned out to be 1.

As to TAACAAGGCG, the switch fluorescence ratio was 1.05.

Take GTTTGTGTGC: the switch fluorescence ratio came out at 0.987.

TGGGCTCCGT: the switch fluorescence ratio was found to be 0.99.

CACTTTTCGT: the switch fluorescence ratio is 0.969.

Take CACGGGAGGT: the switch fluorescence ratio worked out at 1.06.

AACTAGGTGG: the switch fluorescence ratio is 1.04.

As for TGAGCAACTC, the switch fluorescence ratio stood at 1.49.

As for GGCATATTAG, the switch fluorescence ratio was determined as 0.988.

For the sequence GCAGGCGACG, the switch fluorescence ratio is 0.975.

As to CGTGAATGGG, the switch fluorescence ratio stood at 1.17.

With GCCCTTTAGC, the switch fluorescence ratio was 0.998.

GTTCTTCCGC: the switch fluorescence ratio was found to be 1.31.

Consider TGGGCCACAA, for which the switch fluorescence ratio worked out at 1.03.

For the sequence CATGTTGTTC, the switch fluorescence ratio is 0.981.

On to ACGAATTTC, for which the switch fluorescence ratio came out at 1.04.

Take TCCAATGTGC: the switch fluorescence ratio was found to be 1.35.

For AACCTTACTC, the switch fluorescence ratio came to 2.54.

TATCAGTCG: the switch fluorescence ratio is 1.01.

With TTGACGCCG, the switch fluorescence ratio was found to be 1.04.

For the sequence TATTTTCGT, the switch fluorescence ratio came to 0.96.

For ATGCTTACCG, the switch fluorescence ratio amounted to 0.972.

CGGCGAGTGC: the switch fluorescence ratio was determined as 0.998.

Consider GGGTCGATGA, for which the switch fluorescence ratio is 0.972.

Take TATTCTAACT: the switch fluorescence ratio was determined as 0.97.

Take TTGAAGTACG: the switch fluorescence ratio was 1.13.

Take ACTACCAGCG: the switch fluorescence ratio worked out at 1.76.

Take GATTACAGGA: the switch fluorescence ratio was determined as 1.09.

Consider TGGTGGGCCT, for which the switch fluorescence ratio is 0.934.

As to ATAATCCCCT, the switch fluorescence ratio stood at 1.17.

Regarding TGGGACTTAT, the switch fluorescence ratio is 0.998.

For TCACTTAAGT, the switch fluorescence ratio was determined as 1.13.

In the case of AGCTGCCCTG, the switch fluorescence ratio was found to be 1.01.

On to CTATACACAC, for which the switch fluorescence ratio turned out to be 1.41.

TTATTACTCA: the switch fluorescence ratio turned out to be 0.994.

Regarding ATTAGGGCTA, the switch fluorescence ratio was determined as 0.997.

For the sequence TTACCATCTG, the switch fluorescence ratio was 0.976.

For the sequence TATTCTCGCA, the switch fluorescence ratio came out at 1.11.

Consider GACATAATGG, for which the switch fluorescence ratio was 1.01.

Take TCTGCGAT: the switch fluorescence ratio came to 1.24.

With ACTCGGGC, the switch fluorescence ratio was determined as 1.02.

For TGTTATGCTT, the switch fluorescence ratio stood at 0.995.

With TAGGCGCAAC, the switch fluorescence ratio amounted to 1.53.

On to AAGAGGTTCG, for which the switch fluorescence ratio amounted to 0.985.

Consider GGAGCCCATC, for which the switch fluorescence ratio turned out to be 1.05.

As to ACAAAAGAAT, the switch fluorescence ratio worked out at 0.978.

On to TGTGACCGCA, for which the switch fluorescence ratio is 1.25.

On to GATTTCGGGC, for which the switch fluorescence ratio was 1.01.

Take AGTTCCCTTA: the switch fluorescence ratio is 0.993.

Turning to ACCAGCGTGA, the switch fluorescence ratio worked out at 1.11.

With TCATTTTTCG, the switch fluorescence ratio worked out at 1.

On to TTCCATGGAC, for which the switch fluorescence ratio stood at 1.04.

Regarding AGGCTCCTAA, the switch fluorescence ratio turned out to be 0.98.

Turning to GGTTTGTTGC, the switch fluorescence ratio worked out at 0.985.

ATATAAATGG: the switch fluorescence ratio worked out at 1.04.

As to CGATGGGTCA, the switch fluorescence ratio was found to be 0.94.

For ACTTTAAAGC, the switch fluorescence ratio came out at 1.09.

Take TAGAACTGGT: the switch fluorescence ratio was 0.917.

On to TGATGCGCGT, for which the switch fluorescence ratio worked out at 0.991.

As for TGACGGTCTA, the switch fluorescence ratio was found to be 1.02.

Regarding GTTGAGGCGC, the switch fluorescence ratio was determined as 0.963.

GGGCCGACAC: the switch fluorescence ratio came to 1.08.

ATCATTCCGG: the switch fluorescence ratio stood at 1.06.

GTTAGATTAA: the switch fluorescence ratio was found to be 1.

Consider GCCATGTGGT, for which the switch fluorescence ratio was found to be 0.994.

Turning to GTTCATGCTT, the switch fluorescence ratio was determined as 1.01.

Turning to TATGCTGGCC, the switch fluorescence ratio worked out at 0.936.

With ACCTCCCCT, the switch fluorescence ratio worked out at 1.67.

Consider AGCCTGGTAT, for which the switch fluorescence ratio is 1.

Regarding TCCACATGAT, the switch fluorescence ratio was found to be 0.996.

With ACTCATAAAG, the switch fluorescence ratio amounted to 0.947.

On to GGTTGCTTCC, for which the switch fluorescence ratio was determined as 1.54.

Turning to CTGGGGGACA, the switch fluorescence ratio turned out to be 0.978.

With TCGGGTTAA, the switch fluorescence ratio is 1.06.

For TGTGCCCGAT, the switch fluorescence ratio was 1.01.

In the case of CGTGAGAACC, the switch fluorescence ratio stood at 1.02.

With CCTCGAGTGG, the switch fluorescence ratio stood at 1.04.

GCATCATGAA: the switch fluorescence ratio is 1.

On to AGCGGTTAAA, for which the switch fluorescence ratio amounted to 0.985.

For CTTTTCCTGT, the switch fluorescence ratio stood at 1.14.

CCCCGGGTTT: the switch fluorescence ratio was 1.64.

Turning to GGTGAATCG, the switch fluorescence ratio is 1.01.

With CTTCGGATGC, the switch fluorescence ratio was determined as 1.36.

In the case of TCAGGCCTAG, the switch fluorescence ratio worked out at 1.02.

With AAGTCACCGC, the switch fluorescence ratio is 1.14.

Take TTTCCGTCGA: the switch fluorescence ratio was 1.1.

Consider CCAGACCGGA, for which the switch fluorescence ratio was determined as 1.07.

TACTGAATTG: the switch fluorescence ratio amounted to 1.01.

Turning to AATCCTCCGT, the switch fluorescence ratio was found to be 3.89.

With TTCTAGTGGA, the switch fluorescence ratio is 0.967.

For TTGACGGACT, the switch fluorescence ratio was 1.11.

With GACTCGCAAG, the switch fluorescence ratio came to 1.23.

Regarding GGCTCCTCAG, the switch fluorescence ratio was found to be 1.07.

For the sequence TCTTAGCTTT, the switch fluorescence ratio came to 0.952.

For ATAGTTGTAT, the switch fluorescence ratio turned out to be 1.01.

With TGCGCAAACC, the switch fluorescence ratio turned out to be 1.06.

Take CCTGCATCCT: the switch fluorescence ratio was 1.41.

As for ATGGTGTCA, the switch fluorescence ratio is 1.03.

As for ATGTGTTGTT, the switch fluorescence ratio was found to be 0.979.

CATTTAATCA: the switch fluorescence ratio was determined as 0.998.

CGGCGCGGGA: the switch fluorescence ratio is 0.991.

As for CTCCAGAGCA, the switch fluorescence ratio is 2.27.

Take CGTCCCGGGG: the switch fluorescence ratio is 1.06.

As to CCATGGTTTG, the switch fluorescence ratio was 0.988.

AGGAATTGT: the switch fluorescence ratio was found to be 0.998.

ACTGGAGTGT: the switch fluorescence ratio was found to be 0.984.

For ATGGCCTCTG, the switch fluorescence ratio worked out at 0.978.

Regarding CATCCAACGT, the switch fluorescence ratio was found to be 1.04.

Regarding TGACAACCTG, the switch fluorescence ratio worked out at 1.05.

The record behind these values is the supplement of paper PMC10126150.
